Measured values from paper PMC5892938.
The list shows a part of the results. At the low end of the ranking, values are background and their order means little.

biological target: GST-SBP-SLBP (stem-loop binding protein) (UniProt Q14493); test: targeted RNA Bind-n-Seq; details: RBNS binding buffer: 25 mM Tris pH 7.5, 150 mM KCl, 3 mM MgCl2, 0.1% Tween, 0.5 mg/mL BSA, 1 mM DTT; 27 nM protein, 750 pM RNA pool; temperature not stated; high values mean tight binding;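 further: DESeq read counts versus GST-SBP nonspecific binding control pulldown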

Sequence | binding signal (log2 fold change)
GGUCACGUCUCAAUCAACUCUACUUCCAGGGAAAGCCCUGGUUAAUUCAACAGCUCGCAGUCAAG | 0.143
GGUCACGUCUCAAUCAACUCUAGUCCAGGAGUUUUCUCCUGCUUUUUCAACAGCUCGCAGUCAAG | -0.122
GGUCACGUCUCAAUCAACUCUUCCGCAGGAGUUUCCUCCUGGUAUUUCAACAGCUCGCAGUCAAG | -0.226
GGUCACGUCUCAAUCAACUCUAUUUCAGGAGUUUGCUCCUGCAUAUUCAACAGCUCGCAGUCAAG | -0.071
GGUCACGUCUCAAUCAACUCUAAAGAGGGGGGGAAAACCCCUUUACCCUCCAUUUCAACAGCUCGCAGUCAAG | -0.542
GGUCACGUCUCAAUCAACUCAUUUUCAGGAGUUUACUCCUGCUAUUUCAACAGCUCGCAGUCAAG | 0.0716
GGUCACGUCUCAAUCAACUCUAACGAGGGGGGGAAAACCCCUUUACCCUCAUCAUCAACAGCUCGCAGUCAAG | 0.21
GGUCACGUCUCAAUCAACUCUUUCUCAGGAGUUUUCUCCUGCAAUUUCAACAGCUCGCAGUCAAG | -0.0272
GGUCACGUCUCAAUCAACUCAUCUUCCAGGGAAAGCCCUGGUAAACUCAACAGCUCGCAGUCAAG | -0.0582
GGUCACGUCUCAAUCAACUCCUACGAGGGGGGGAAAACCCCUUUACCCUCUCCAUCAACAGCUCGCAGUCAAG | -0.649
GGUCACGUCUCAAUCAACUCCUUAGAGGGGGGGAAAACCCCUUUACCCUCCUUAUCAACAGCUCGCAGUCAAG | 0.0877
GGUCACGUCUCAAUCAACUCAGUUUCAGGAGUUUUCUCCUGUAUAUUCAACAGCUCGCAGUCAAG | 0.147
GGUCACGUCUCAAUCAACUCUUUCUCAGGAGUUUACUCCUGUUUACUCAACAGCUCGCAGUCAAG | 0.0933
GGUCACGUCUCAAUCAACUCUUCGUCAGGAGUUUACUCCUGUUUUUUCAACAGCUCGCAGUCAAG | -0.168
GGUCACGUCUCAAUCAACUCAAUUCCCAGGGAAAACCCUGGCAUAGUCAACAGCUCGCAGUCAAG | -0.229
GGUCACGUCUCAAUCAACUCAUCCGAGGGGGGGAAAACCCCUUUACCCUCAAUCUCAACAGCUCGCAGUCAAG | -0.352
GGUCACGUCUCAAUCAACUCUUCGCCCAGGGAAAACCCUGGUAUUCUCAACAGCUCGCAGUCAAG | -0.0128
GGUCACGUCUCAAUCAACUCUAUAGAGGGGGGGAAAACCCCUUUACCCUCCAUAUCAACAGCUCGCAGUCAAG | 0.00458
GGUCACGUCUCAAUCAACUCAGUCCCCAGGGAAAACCCUGGCAUAUUCAACAGCUCGCAGUCAAG | -0.271
GGUCACGUCUCAAUCAACUCCUCAGAGGGGGGGAAAACCCCUUUACCCUCCACGUCAACAGCUCGCAGUCAAG | -0.271
GGUCACGUCUCAAUCAACUCUACGCCAGGAGUUUCCUCCUGUAAUUUCAACAGCUCGCAGUCAAG | -0.0618
GGUCACGUCUCAAUCAACUCAUCUCCCAGGGAAAUCCCUGGCAUUUUCAACAGCUCGCAGUCAAG | 0.0525
GGUCACGUCUCAAUCAACUCUUCUCCCAGGGAAAGCCCUGGCAUACUCAACAGCUCGCAGUCAAG | -0.089
GGUCACGUCUCAAUCAACUCUACGGAGGGGGGGAAAACCCCUUUACCCUCAAAUUCAACAGCUCGCAGUCAAG | 0.0974
GGUCACGUCUCAAUCAACUCUUAGGAGGGGGGGAAAACCCCUUUACCCUCAUCGUCAACAGCUCGCAGUCAAG | 0.158

Sequence | binding signal (log2 fold change)
GGUCACGUCUCAAUCAACUCUAUAGAGGGGGGGAAAACCCCUUUACCCUCACACUCAACAGCUCGCAGUCAAG | -0.0726
GGUCACGUCUCAAUCAACUCUAUCUCCAGGGAAAGCCCUGGCUUAUUCAACAGCUCGCAGUCAAG | -0.182
GGUCACGUCUCAAUCAACUCAGUCUCAGGAGUUUCCUCCUGCAAAUUCAACAGCUCGCAGUCAAG | 0.0522
GGUCACGUCUCAAUCAACUCUAUCGAGGGGGGGAAAACCCCUUUGCCCUCAAAUUCAACAGCUCGCAGUCAAG | -0.175
GGUCACGUCUCAAUCAACUCUUCCUCCAGGGAAAACCCUGGCUAUCUCAACAGCUCGCAGUCAAG | 0.291
GGUCACGUCUCAAUCAACUCAUCGUCAGGAGUUUGCUCCUGCUAAUUCAACAGCUCGCAGUCAAG | 0.112
GGUCACGUCUCAAUCAACUCAUUCCCAGGAGUUUUCUCCUGCUUAUUCAACAGCUCGCAGUCAAG | 0.181
GGUCACGUCUCAAUCAACUCAACUUCCAGGGAAAUCCCUGGUUAUUUCAACAGCUCGCAGUCAAG | 0.00375
GGUCACGUCUCAAUCAACUCUUCUCCCAGGGAAACCCCUGGUAUUUUCAACAGCUCGCAGUCAAG | -0.0205
GGUCACGUCUCAAUCAACUCAUUCUCAGGAGUUUACUCCUGCAAUUUCAACAGCUCGCAGUCAAG | 0.00951
GGUCACGUCUCAAUCAACUCUUUCUCCAGGGAAAGCCCUGGUAUUUUCAACAGCUCGCAGUCAAG | -0.156
GGUCACGUCUCAAUCAACUCAUUUUCAGGAGUUUACUCCUGCAAACUCAACAGCUCGCAGUCAAG | -0.0331
GGUCACGUCUCAAUCAACUCUCACGAGGGGGGGAAAACCCCUUUACCCUCACUAUCAACAGCUCGCAGUCAAG | -0.311
GGUCACGUCUCAAUCAACUCUAGUCCAGGAGUUUCCUCCUGCAUAUUCAACAGCUCGCAGUCAAG | -0.106
GGUCACGUCUCAAUCAACUCAUUCGAGGGGGGGAAAACCCCUUUACCCUCUUUUUCAACAGCUCGCAGUCAAG | 0.219
GGUCACGUCUCAAUCAACUCUUUCCCCAGGGAAAACCCUGGUUUUCUCAACAGCUCGCAGUCAAG | 0.0844
GGUCACGUCUCAAUCAACUCUUCCUCCAGGGAAAGCCCUGGUAUAUUCAACAGCUCGCAGUCAAG | -0.239
GGUCACGUCUCAAUCAACUCUAGUCCAGGAGUUUCCUCCUGCAAAUUCAACAGCUCGCAGUCAAG | 0.054
GGUCACGUCUCAAUCAACUCAUCUCCCAGGGAAAGCCCUGGUUUUUUCAACAGCUCGCAGUCAAG | -0.0742
GGUCACGUCUCAAUCAACUCAAAAGAGGGGGGGAAAACCCCUUUACCCUCAUUAUCAACAGCUCGCAGUCAAG | -0.185
GGUCACGUCUCAAUCAACUCAGUCUCCAGGGAAAUCCCUGGUAUUUUCAACAGCUCGCAGUCAAG | 0.347
GGUCACGUCUCAAUCAACUCUAUCCCCAGGGAAAUCCCUGGCUAACUCAACAGCUCGCAGUCAAG | -0.215
GGUCACGUCUCAAUCAACUCAAUGUCCAGGGAAACCCCUGGUUUUUUCAACAGCUCGCAGUCAAG | -0.578
GGUCACGUCUCAAUCAACUCCUCAGAGGGGGGGAAAACCCCUUUACCCUCAUCGUCAACAGCUCGCAGUCAAG | 0.186
GGUCACGUCUCAAUCAACUCAUUCUCCAGGGAAAGCCCUGGCAAACUCAACAGCUCGCAGUCAAG | 0.0108

Sequence | binding signal (log2 fold change)
GGUCACGUCUCAAUCAACUCAGUCCCCAGGGAAAUCCCUGGUAUUUUCAACAGCUCGCAGUCAAG | 0.13
GGUCACGUCUCAAUCAACUCUAUUCCCAGGGAAAUCCCUGGCAAACUCAACAGCUCGCAGUCAAG | -0.216
GGUCACGUCUCAAUCAACUCAACUUCCAGGGAAAUCCCUGGUAUACUCAACAGCUCGCAGUCAAG | 0.213
GGUCACGUCUCAAUCAACUCAACUUCCAGGGAAACCCCUGGUAUACUCAACAGCUCGCAGUCAAG | -0.297
GGUCACGUCUCAAUCAACUCGUUUUCAGGAGUUUUCUCCUGCUUAUUCAACAGCUCGCAGUCAAG | 0.0607
GGUCACGUCUCAAUCAACUCUUUCUCAGGAGUUUGCUCCUGCAUUUUCAACAGCUCGCAGUCAAG | 0.0897
GGUCACGUCUCAAUCAACUCUAGUCCCAGGGAAAACCCUGGUUAAUUCAACAGCUCGCAGUCAAG | -0.135
GGUCACGUCUCAAUCAACUCUAUUUCAGGAGUUUCCUCCUGUAUACUCAACAGCUCGCAGUCAAG | 0.011
GGUCACGUCUCAAUCAACUCUUCAGAGGGGGGGAAAACCCCUUUACCCUCGUCUUCAACAGCUCGCAGUCAAG | 0.152
GGUCACGUCUCAAUCAACUCAAUCUCAGGAGUUUCCUCCUGUUUUCUCAACAGCUCGCAGUCAAG | 0.145
GGUCACGUCUCAAUCAACUCUACUUCCAGGGAAACCCCUGGUAAAUUCAACAGCUCGCAGUCAAG | -0.209
GGUCACGUCUCAAUCAACUCUUCCUCAGGAGUUUCCUCCUGCUUAUUCAACAGCUCGCAGUCAAG | -0.0685
GGUCACGUCUCAAUCAACUCAUUCGAGGGGGGGAAAACCCCUUUACCCUCUAUUUCAACAGCUCGCAGUCAAG | -0.403
GGUCACGUCUCAAUCAACUCCUCAGAGGGGGGGAAAACCCCUUUACCCUCAACAUCAACAGCUCGCAGUCAAG | 0.205
GGUCACGUCUCAAUCAACUCUAUCCCCAGGGAAAACCCUGGCAAUUUCAACAGCUCGCAGUCAAG | 0.0125
GGUCACGUCUCAAUCAACUCAAUUUCCAGGGAAAUCCCUGGUUUUCUCAACAGCUCGCAGUCAAG | -0.416
GGUCACGUCUCAAUCAACUCAGGUCCAGGAGUUUACUCCUGCAAUUUCAACAGCUCGCAGUCAAG | 0.516
GGUCACGUCUCAAUCAACUCAUGUCCAGGAGUUUACUCCUGCUAUUUCAACAGCUCGCAGUCAAG | 0.0394
GGUCACGUCUCAAUCAACUCAAUCUCAGGAGUUUACUCCUGCUAUUUCAACAGCUCGCAGUCAAG | -0.122
GGUCACGUCUCAAUCAACUCAUAAGAGGGGGGGAAAACCCCUUUACCCUCCAAAUCAACAGCUCGCAGUCAAG | 0.0295
GGUCACGUCUCAAUCAACUCUUUCUCCAGGGAAACCCCUGGUUUAUUCAACAGCUCGCAGUCAAG | 0.149
GGUCACGUCUCAAUCAACUCAACAGAGGGGGGGAAAACCCCUUUACCCUCCCAUUCAACAGCUCGCAGUCAAG | 0.0223
GGUCACGUCUCAAUCAACUCAUUCGCAGGAGUUUACUCCUGGUUAUUCAACAGCUCGCAGUCAAG | -0.111
GGUCACGUCUCAAUCAACUCAAUCUCCAGGGAAAUCCCUGGCAUUUUCAACAGCUCGCAGUCAAG | 0.0585
